Consider 44 sequences from the supplement of paper PMC11417369.

± gives the standard deviation of the averaged measurements. This is one part of the list.

The test system of the experiment is PfAP2-EXP AP2 domain (GST-tagged). Description: gcPBM binding intensity (ln(normalized median fluorescence intensity)); higher = stronger DNA binding. Put shortly:
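Binding intensity is defined as the maximum Masliner-normalised natural-log median intensity across replicate spots for either probe orientation. It was measured on an Agilent 4 × 180k array of primer-extended double-stranded 36-bp intergenic genomic probes and negative controls, to which GST-tagged P. falciparum DNA-binding domains made in E. coli were applied for 1 h in 1× PBS with 1% milk, 0.2 mg/ml BSA, 0.5% salmon testes DNA and 0.03% Triton X-100. Detection was by Alexa488 anti-GST antibody and scanning at 488 nm.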
As for “TTTTTTATTTATTGTTATACATCTTACTACTTATAA [GTGCAC_negctrl_site381]”, the “gcPBM binding intensity (ln)” value is 8.73 ± 0.38.
For “AATATATTTATATATAGTACTTTTATAATATCGTTT [XGTACX_site6658]” the value was 8.3 ± 0.33; for “AATACACATAATACATGTACTCACATTGTTATAACA [XGTACX_site4129]”, 8.88 ± 0.46.
In the case of “AAATATTTTTTAATGTGTACATAGAACATATATATA [XGTACX_site3136]”, the “gcPBM binding intensity (ln)” value was 8.55 ± 0.35.
For “ATAATATATATATTATGTACATATAAATTTTTTTTT [XGTACX_site5826]” the value was 8.37 ± 0.38; for “TATATACCTATATATACACACAAATACATAAGCTTC [CACACA_site1369]”, 8.64 ± 0.4.
Turning to “TTTTTTAAAAAACAAACACACACGTAGAAAAAAAAA [CACACA_site826]”, the “gcPBM binding intensity (ln)” value turned out to be 8.94 ± 0.51.
With “TAATTATATGGATACACACACATACATTTACATAAC [CACACA_site5744]” the figure was 8.68 ± 0.43; with ACTTATTTATTTTTAGTGCATTTAGTTTTATTTTAT, 9.12 ± 0.12; with “TATAACTATAAAAGGAGTACTATATATATATATATA [XGTACX_site1388]”, 9.98 ± 0.32.
For the sequence “TAAAAAGAAAAAAAGAGTACAAACAAAATAATAATT [XGTACX_site6071]”, the “gcPBM binding intensity (ln)” value stood at 8.89 ± 0.41.
With “TATTTGCAATGCAAATGTACATGAATTTTTTTAATG [XGTACX_site7474]” the figure was 8.48 ± 0.26; with “TCTACAAAATTATCATGTACATATTATTATAATTAT [XGTACX_site6585]”, 8.73 ± 0.48.
With “AATAGTACAAAAAAAAAAAAAAAAAAAAAAAAAAAA [CACACA_negctrl_site1376]” the figure was 7.97 ± 0.42; with “AGTATACACAAACACACACACACAAAAAAAAAAAAA [CACACA_site8036]”, 8.21 ± 0.47; with “GAATGAATGATAAATTTTTTTTTCTTTTTTTTTTTG [CACACA_negctrl_site333]”, 7.97 ± 0.49.
For “TGTTATATATATACAAACATACACATTTATAAACAA [TGCATGCA_negctrl_site235]” the value was 8.8 ± 0.52; for “GTTCAAATTCTTATACCTTTTTATTGAGCCATAATA [CACACA_negctrl_site210]”, 8.65 ± 0.44.
In the case of “TTATGATCATTTATATGTACACATAATTTTTGTGCT [XGTACX_site5568]”, the “gcPBM binding intensity (ln)” value was 8.66 ± 0.34.
With “TATTAATTTCTTTTTTCTCATCACTTTCAAAATGAA [CACACA_negctrl_site1055]” the figure was 8.5 ± 0.45; with “AAAAAAAGAAAAAAAACACACACAAATATAAATAAA [CACACA_site8309]”, 8.59 ± 0.66.
For “AGCATATATTAAACATGTACATAAATATATTATATA [XGTACX_site1451]” the value was 8.61 ± 0.2; for “AGAGAAGAAAACAAAACACACACATATATCTTAATA [CACACA_site8699]”, 8.63 ± 0.71; for “AACTTAAAAAAAAAAAAAAAAAAAAAAAAAAAAAAA [GTGCAC_negctrl_site34]”, 7.96 ± 0.2.
“AGAAATCATCTGAATTGTACTAACAATTTTTTTTAA [XGTACX_site6191]”: the “gcPBM binding intensity (ln)” value came to 8.26 ± 0.2.
With “ATAAAATGGGCAAACACACACAAAAAAAAGATATAT [CACACA_site1648]” the figure was 9 ± 0.44; with AGGGGCGAAACAAAGGTGCTTTTATAAAATATGTAA, 8.84 ± 0.39.
As for “CCCAATAATTAAACAACACACATATATATCTGTAAT [CACACA_site5667]”, the “gcPBM binding intensity (ln)” value worked out at 9.26 ± 0.65.
For “TATTATAATAAAATATGTACACACATACACACATAT [XGTACX_site2360]” the value was 8.8 ± 0.33; for “CTTAAATCTACTATTTGTACATATTTTATTATTAAA [XGTACX_site6151]”, 8.58 ± 0.37.
For “TAGATAAAATTAAAATGTACAAACCTTTTCCCTTAT [XGTACX_site1136]” the value was 8.09 ± 0.35.
With “TTTTTTTTATCAAATTGTACATATACAAAGGTGATC [XGTACX_site8054]” the figure was 8.48 ± 0.66; with “ATTTTATTTTTTAATAGTACTCATTTTTTATGTGAA [XGTACX_site5494]”, 8.55 ± 0.39.
As for “TATATATATATAAAGGTGCATATCTTTACGTATGTC [GTGCAC_site9665]”, the “gcPBM binding intensity (ln)” value was found to be 9.99 ± 0.11.
For “ATATATATATATGATACATGCATATATTTTTTCTTC [TGCATGCA_site216]”, the “gcPBM binding intensity (ln)” value stood at 9.99 ± 0.13.
With “ATATATATATATATATGTACTTATTTATTTTATATA [XGTACX_site8810]” the figure was 10.2 ± 0.24.
With “AACACCAAACAAAGGTGTACATATAGGAAAAAATCT [XGTACX_site1006]” the figure was 8.7 ± 0.47; with “TATCACATATTATGATGTACAAAGATTCTGACTAAT [XGTACX_site2770]”, 8.53 ± 0.56.
With “TACACGCAGAAACACACACACACACCCATATATATA [CACACA_site637]” the figure was 8.74 ± 0.28.
Regarding “TAGATATGTCTAAAAAGTACTTTCTATAACAATTCT [XGTACX_site6678]”, the “gcPBM binding intensity (ln)” value came to 8.27 ± 0.42.
With “TCATATTATTATATATGTACATACCAATATATTATA [XGTACX_site2988]”, the “gcPBM binding intensity (ln)” value amounted to 8.47 ± 0.33.
For the sequence “TTTCCTTATAAAAATACACACAAACTTTCATTAAAA [CACACA_site5953]”, the “gcPBM binding intensity (ln)” value was found to be 8.29 ± 0.45.
Regarding AGAGGGGAAAACATGATGCACTAGTATAACCAAGAA, the “gcPBM binding intensity (ln)” value came out at 9.22 ± 0.34.
Regarding “ACTCTCTTATATTAAACACACATATATATATGTATA [CACACA_site2703]”, the “gcPBM binding intensity (ln)” value worked out at 8.8 ± 0.36.
